Over roughly 16,000 sequences, “Z-score” has its median near -0.37; the highest 2% begin near 3.1. This is one part of the list.
The sequences below were run on RBM10 RRM1-ZnF-RRM2 (GST-tagged construct) (assay: RNAcompete 7-mer binding Z-score; higher = stronger binding preference).
Protocol: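 RNAcompete: 20 pmol GST-tagged RBM10 RNA-binding constructs were incubated with a designed RNA pool of about 241,000 sequences up to 41 nt (1.5 nmol) on glutathione beads for 30 min at 4 °C and washed. Bound RNAs were identified by microarray hybridisation. Each RNA 7-mer is scored by a one-sided Z-score of its enrichment, computed over probes that contain the 7-mer within longer pool sequences.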

Sequence | RNAcompete 7-mer binding Z-score
UACAAUU | -0.53
CCGAGGG | 1.01
GAGAAUU | -0.0488
GGGUAAA | 3.9
AAUCGUG | -0.162
CAGUGGG | 2.93
UCUGCCU | -0.967
UCACGGC | -0.617
CUUCACU | -0.806
UAGCGGU | 0.312
CUUAUGA | -0.777
CCUUUUA | -1.01
GGUUGAA | 1.41
CAUAGCC | -0.737
ACUACCU | -0.821
CUGUACG | -0.398
UAAAGGA | 1.64
GCAUGCA | -0.147
GCUGCGC | -0.315
GCGAUUU | -0.606
GUCUUUA | -0.606
UUUAUAG | -0.617
UAGUAUU | -0.224
GCGUGGU | 1.4
GGCGAAC | 1.11

Sequence | RNAcompete 7-mer binding Z-score
CCACCAA | -0.803
CGUAGGC | 0.64
GUACGAC | -0.00512
CGGGGCG | 2.68
GCUUUCU | -0.766
UUCAUAC | -0.857
CCCACUC | -0.715
UACACCG | -0.479
GCCACAC | -0.57
AGCGAGU | 0.811
CCAUGUG | -0.373
AGGUCCG | -0.067
GCCGCAG | -0.26
UGUAUUC | -0.53
UUGGAUG | 1.37
CCGCAUG | -0.562
CUUCAGA | -0.894
CUAUCAC | -0.89
CGACUCC | -0.945
AACACCA | -0.504
GUAUGCC | -0.504
GGACACA | 0.953
UUGGGCC | 0.202
GGUUUGG | 2.78
AAGUGUC | -0.322

Sequence | RNAcompete 7-mer binding Z-score
UUUAUAU | -0.617
AACAUAC | -0.599
AAGAAGC | 0.232
UCUAAUG | -0.577
GGCAACG | 1.18
AGAGUCA | 0.166
UCGCUAU | -0.704
GUGUCUU | -0.442
ACCUGAG | -0.453
GUGCACG | 0.487
UGUAAAC | -0.231
AGGGGUU | 2.42
GAACUGG | 1.17
UUAAUUU | -0.668
GCUAUGA | -0.187
CUGGGGC | 0.956
CGAAUAA | -0.224
UCAAUCA | -0.435
CAAUGAC | -0.439
UCUUUCU | -0.755
UACCAUU | -0.708
CGCAUUG | -0.377
AUACAGC | -0.162
UGGCAAU | 0.705
CAGCUUU | -0.923

Sequence | RNAcompete 7-mer binding Z-score
CCAAAGU | -0.395
GACCAGA | -0.162
UGUCGGU | -0.0889
GUCUCGC | -0.646
AGUGAAG | 1.65
CCAGCCU | -0.876
UCCGGGG | 1.24
AGAAAGU | 0.264
UAACCUU | -0.719
UCGUACU | -0.446
UACGCCU | -0.81
UGCCUCU | -0.916
GGUCUCC | -0.304
GUACCUA | -0.511
CUUUGAU | -0.887
UACUUCU | -0.905
GCCCUUC | -0.843
CCUUAGA | -0.744
ACUGCUC | -0.93
AGCAAAC | -0.0998
CCCGAAG | -0.672
AACUUCA | -0.675
UGUGCGU | 0.0859
ACAGUAG | 0.457
AACGUGA | 0.243

Sequence | RNAcompete 7-mer binding Z-score
UCCUGUG | -0.522
CUAAUCG | -0.453
UACCAAG | -0.122
ACCUCGC | -0.715
CCGAGCC | -0.781
CGAGCGC | -0.267
GGGAACU | 1.32
AUUCGCG | -0.409
CAUUACU | -0.734
AGUUCAG | -0.118
UAGAAGG | 3.2
UACUGAU | -0.49
GUUGAAG | 1.61
UCAGCGU | -0.26
GGAGUUU | 0.942
ACUCAAA | -0.734
UAGUGGA | 1.52
AAGUUGC | -0.293
AGCGCCG | -0.366
CCAAAUG | -0.435
AACCUUG | -0.799
AACGCUU | -0.741
UCGAACG | -0.0598
UAGAUCC | -0.49
UAAGCGU | 0.0823

Sequence | RNAcompete 7-mer binding Z-score
AGAAUAG | 0.665
GGUCUUC | -0.18
AACGAAC | -0.0525
CCCUGCA | -0.857
CUGUAGA | -0.442
CAUCGUU | -0.664
GUGACUG | 0.436
ACGCCCU | -0.752
UAUGGAG | 1.68
ACGCAAA | -0.307
AAUACGU | -0.195
GGCGACA | 0.982
AAGGGGU | 4.33
CGUCGUU | -0.253
CGAAAUC | -0.683
CGAAAUU | -0.675
AGAUCCG | -0.828
GAAAACA | 0.374
CUGCUAC | -0.748
GCGCUCC | -0.515
ACAGUAC | -0.173
CGAUAUA | -0.337
ACGGCGC | -0.147
UGACGUG | 0.552
UAUACAA | -0.133

Sequence | RNAcompete 7-mer binding Z-score
GAAGAAG | 2.62
AGCGCAG | 0.312
AACGGCC | -0.3
UGUGGAA | 1.47
UGAGGCC | 0.133
CUGUUUA | -0.948
UGAUAGA | 0.184
ACACCAA | -0.53
AGUCAAA | -0.213
GGGGAUA | 3.16
GCCCGUU | -0.748
AUUCGUA | -0.53
GGGGCCA | 0.88
AGCACCG | -0.162
GAAAUUG | 0.476
UAACAUC | -0.562
CAUUUAA | -0.799
CAUUAAU | -0.511
CUUUAAU | -0.763
GCAAAGC | 0.0313
UACACCU | -0.704
AGGUAAG | 2.74
GGCAGAU | 0.829
UAGCCCG | -0.639
UAUAUUG | -0.406

Sequence | RNAcompete 7-mer binding Z-score
CUGCUUG | -0.868
AUGGGGC | 2.6
UCAUGCA | -0.602
AUCCCGG | -0.439
GAGGAAG | 3.52
CUCGUUU | -0.912
AUUAAGC | -0.522
GAGCCGG | 0.538
CGGUGUC | 0.181
GUCAAGA | -0.0634
UUUGUAA | -0.566
UACCUUC | -0.857
GAUGACA | 0.607
GUAGUCG | 0.301
GCGGACC | 0.184
GGCGGCU | 0.443
AAUUGGU | 1.06
GCGCAAU | -0.253
UGGUAGG | 3.16
GUGAAAU | 0.621
AACCCCU | -0.81
GCACCGA | -0.409
AGUGCUA | 0.111
UAGCCAU | -0.635
AAACGGG | 2.9

Sequence | RNAcompete 7-mer binding Z-score
CCCCGUU | -0.817
AAUGAUU | -0.293
CGGCUCG | -0.242
CCUCACC | -0.726
AGGUAUU | 0.618
AGGAGUG | 2.8
UUGGCUG | -0.271
GGUCCGA | 0.151
UACUAGU | -0.471
AUAUCAC | -0.617
UGACGGC | 0.272
UCUCAUC | -0.715
AAGUCGU | -0.165
AGGGCCU | -0.154
AAUCCGC | -0.697
GGACAAU | 1.34
CUGACUA | -0.668
AUUUCAC | -0.741
CAGGAGC | 1.47
UCGGGGU | 1.76
UGUUUUC | -0.664
AGCUGCG | -0.122
GCAAGCG | 0.603
UGAGAUA | 0.119
UACUACA | -0.46

Sequence | RNAcompete 7-mer binding Z-score
CUACACA | -0.599
UUUAAAU | -0.766
AGGGGCC | 0.581
UUCAGUA | -0.0233
AGGCAGU | 0.618
CUUGGUG | 0.472
UGAACUA | -0.384
CUCGGGU | 0.283
UCAACAG | -0.158
UCAGUAA | -0.195
GCUUCUC | -0.883
GUAACAA | 0.166
UAUAUCG | -0.391
UGAUGGC | 0.712
AGAAGUA | 0.355
CAUCCUC | -0.81
GGUCAAU | 0.534
UUGAACA | -0.482
AACGGUG | 1.62
CAUGGCC | -0.344
CAAACGA | -0.00877
GUACGUG | 0.505
GGUAUCC | 0.151
ACUAGCC | -0.774
AGGCGCU | -0.18

Sequence | RNAcompete 7-mer binding Z-score
CGCCUGG | -0.482
AUAGAAG | 0.931
GGCCGCC | -0.683
AGACAUG | 0.166
UGUGUCA | -0.592
CUAUAUC | -0.668
UCCGCUU | -0.897
GCAGCGA | 0.894
UGGCCAG | 0.264
UUAUUGU | -0.548
GCCCGUC | -0.719
GGUAACA | 1.31
CUCUGUC | -0.814
UGCCUAG | -0.599
CAAUUCC | -0.755
CUCGACA | -0.708
CGAUCCC | -0.799
AGCGGGG | 3.96
UAGUCUG | -0.457
AUAAGUG | 0.355
GUAAAAG | 0.767
CCCACGC | -0.53
CAACUGU | -0.741
UAGGGAU | 2.48
CACUGAG | -0.209

Sequence | RNAcompete 7-mer binding Z-score
ACCAUUA | -0.573
AACGCGU | 0.0714
CCGGGUA | 0.814
GCUCGGC | -0.329
UCGAUUG | -0.581
UAACGAA | -0.249
GAGAGAC | 0.166
UACAUCG | -0.395
CCAUAAC | -0.712
GGAGUUC | 0.286
GAUAAUA | 0.206
CAGCAGA | 0.494
GGGUAAU | 2.99
UGCCCGA | -0.602
UGCGCAG | 0.0677
AGUCUCA | -0.584
AAAUAGC | -0.278
GACGAGU | 0.468
CGGCCUA | -0.77
AUGCGGC | 0.217
GACGAUU | -0.366
CAGAGAA | 0.108
GCCCUCA | -0.945
GCCGUAG | -0.00148
GGCACCU | -0.264

Sequence | RNAcompete 7-mer binding Z-score
UCGGCUC | -0.701
GGUGUGC | 1.85
UUGUUUA | -0.661
CGGUUAA | 0.33
ACCCUUU | -1.01
CGGUAUA | 0.312
UACUCUC | -0.734
GACUAUC | -0.846
CCGCGAC | -0.723
CUCUCCC | -0.635
AGAAGGA | 4.29
UGACAAA | -0.395
GGCGGAC | 1.38
GUGAGCU | 0.406
AUGCCAU | -0.785
GAUUCGA | -0.173
CGAUGUU | -0.657
CUCAAUC | -0.806
GGGUACC | 1.58
ACCCAAC | -0.792
AUCAGCC | -0.839
CAGCUAU | -0.635
UAACGCG | -0.333
GGGCAGG | 3.39
CUCGCCG | -0.785

Sequence | RNAcompete 7-mer binding Z-score
UUAACAA | -0.278
CAAGUCA | -0.369
AGCUGUA | -0.559
AUUCAGC | -0.679
CUCAAAC | -0.806
ACAUGCC | -0.941
AUAUGUA | -0.144
AUAGUCG | -0.00148
GAGUCGA | 0.68
UGCCGAA | -0.424
CAGUGAG | 1.5
AUCCUUC | -0.734
GCCACCU | -0.777
GGAAUCG | 1.15
GAUCUUG | -0.675
GCCUAGG | 0.0422
CAGUGCU | -0.216
CAACUAG | -0.355
GCAAGGC | 0.541
AGGACGU | 0.574
AGCAUAU | -0.435
UUCCUCG | -0.715
AGCUGGA | 0.672
AUAUUUG | -0.449
AGAUGAU | 0.177

Sequence | RNAcompete 7-mer binding Z-score
AAUCGAC | -0.373
GCCAAAG | -0.0743
AACGUAA | -0.202
AAUGCUG | -0.0197
CGGCUAC | -0.577
UUUUUUG | -0.464
AUAAUCC | -0.73
GGGAAAC | 2.51
UAAUCGG | 0.115
AUGAGCA | 0.497
UAUAGCG | 0.0823
AGCUAUC | -0.679
UGUCGAC | -0.5
CUUUCAA | -0.792
GUCGCAA | -0.351
GCAAUAG | 0.84
CGAUCUA | -0.715

Reference: the supplement of paper PMC5499739
